This is an account of results in IntAct's records for PubMed 25910212.

B1: 5-hydroxytryptamine receptor 1B (Homo sapiens), P28222 (parent)
chain: MEEPGAQCAPPPPAGSETWVPQANLSSAPSQNCSAKDYIYQDSISLPWKVLLVMLLALITLATTLSNAFVIATVYRTRKLHTPANYLIASLAVTDLLVSILVMPISTMYTVTGRWTLGQVVCDFWLSSDITCCTASILHLCVIALDRYWAITDAVEYSAKRTPKRAAVMIALVWVFSISISLPPFFWRQAKAEEEVSECVVNTDHILYTVYSTVGAFYFPTLLLIALYGRIYVEARSRILKQTPNRTGKRLTRAQLITDSPGSTSSVTSINSRVPDVPSESGSPVYVNQVKVRVSDALLEKKKLMAARERKATKTLGIILGAFIVCWLPFFIISLVMPICKDACWFHLAIFDFFTWLGYLNSLINPIIYTMSNEDFKQAFHKLIRFKCTS
B2: Myeloid differentiation primary response protein MyD88 (Homo sapiens), Q99836 (parent)
chain: MAAGGPGAGSAAPVSSTSSLPLAALNMRVRRRLSLFLNVRTQVAADWTALAEEMDFEYLEIRQLETQADPTGRLLDAWQGRPGASVGRLLELLTKLGRDDVLLELGPSIEEDCQKYILKQQQEEAEKPLQVAAVDSSVPRTAELAGITTLDDPLGHMPERFDAFICYCPSDIQFVQEMIRQLEQTNYRLKLCVSDRDVLPGTCVWSIASELIEKRCRRMVVVVSDDYLQSKECDFQTKFALSLSPGAHQKRLIPIKYKAMKKEFPSILRFITVCDYTNPCTKSWFWTRLAKALSLP
partner: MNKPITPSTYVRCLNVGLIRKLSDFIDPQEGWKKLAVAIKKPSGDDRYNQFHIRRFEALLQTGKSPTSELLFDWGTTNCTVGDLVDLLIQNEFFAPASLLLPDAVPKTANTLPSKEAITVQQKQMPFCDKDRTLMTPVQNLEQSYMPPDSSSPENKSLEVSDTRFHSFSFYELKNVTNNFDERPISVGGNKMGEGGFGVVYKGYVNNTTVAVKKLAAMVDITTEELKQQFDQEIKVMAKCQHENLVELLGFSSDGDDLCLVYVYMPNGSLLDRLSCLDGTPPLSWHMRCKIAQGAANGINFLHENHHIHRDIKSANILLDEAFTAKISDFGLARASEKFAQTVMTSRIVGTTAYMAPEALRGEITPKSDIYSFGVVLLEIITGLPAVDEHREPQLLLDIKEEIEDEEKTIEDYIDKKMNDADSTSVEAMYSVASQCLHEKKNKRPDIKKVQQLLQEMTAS

In one test the parent is B1. The conditions noted are these: with mdfi_human MDFI.
In the case of MEEPGAQCAPPPPAGSETWVPQANLSSAPSQNCSAKDYIYQDSISLPWKVLLVMLLALITLATTLSNAFVIATVYRTRKLHTPANYLIASLAVTDLLVSILVMPISTMYTVTGRWTLGQVVCDCWLSSDITCCTASILHLCVIALDRYWAITDAVEYSAKRTPKRAAVMIALVWVFSISISLPPFFWRQAKAEEEVSECVVNTDHILYTVYSTVGAFYFPTLLLIALYGRIYVEARSRILKQTPNRTGKRLTRAQLITDSPGSTSSVTSINSRVPDVPSESGSPVYVNQVKVRVSDALLEKKKLMAARERKATKTLGIILGAFIVCWLPFFIISLVMPICKDACWFHLAIFDFFTWLGYLNSLINPIIYTMSNEDFKQAFHKLIRFKCTS [F124C], the “effect of a mutation on the interaction” value is listed as “with no effect”.

Variants of B2 are the subject of a further test. The conditions noted are these: with irak4_human IRAK4, Q9NWZ3.
Consider R196C, for which the “effect of a mutation on the interaction” value is “with no effect”.

The variants in the next test derive from B2. The conditions noted are these: with irak4_human IRAK4, Q9NWZ3. This is another data set of the same source.
In the case of R196C, the “effect of a mutation on the interaction” value is given as “disrupting interaction strength”.
